The full ranking holds about 33,000 sequences; the median of “E-score (-0.5 to 0.5)” is about -0.054, and the highest 2% start at about 0.39. The list shows a part of the results.
Each sequence was assayed against Ylr278c (UniProt Q05854) (assay: PBM E-score (8-mer binding enrichment) (E-score (-0.5 to 0.5)); higher = stronger / more preferred TF binding; most listed sequences are background and not binding sites). Conditions: protein concentration: 200 nM; construct: GST-DNA-binding domain.
Protocol: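 Universal 'all 10-mer' protein binding microarrays (Agilent AMADID 015681) probed with GST-tagged S. cerevisiae TFs (full-length or DBD) made by in vitro transcription/translation (PURExpress), about 100-200 nM. Bound TF was detected with fluorescent anti-GST. Each ungapped 8-mer (which stands for itself and its reverse complement) is scored by the PBM enrichment score (E-score), a modified Wilcoxon-Mann-Whitney statistic from -0.5 to +0.5, computed with the Universal PBM Analysis Suite. Scale: above 0.35 generally sequence-specific binding.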

Row | Sequence | PBM E-score
1 | TGAGAGCA | -0.163
2 | ACAGCGAA | -0.0695
3 | ACAGTAGC | -0.0733
4 | GATTGCAA | -0.095
5 | AGATGCGC | -0.038
6 | CGAACTAC | 0.171
7 | ACTATAAC | -0.2
8 | CTGAGAGC | -0.076
9 | AGAGGTCC | 0.062
10 | GCCGACGA | 0.248
11 | ACGTAGAC | -0.244
12 | CGATTCGC | 0.174
13 | CCGCATAA | 0.297
14 | CCAAGAAG | -0.132
15 | AAATCTTA | -0.149
16 | CTTTCGTC | 0.0249
17 | ACTATTCG | -0.183
18 | CTGACATA | -0.269
19 | CGGCACTA | 0.291
20 | ACCGAGCC | 0.0963
21 | TACTAGGA | -0.0371
22 | CCAATCGG | 0.217

Row | Sequence | PBM E-score
23 | AGGACACT | -0.115
24 | AGAAAAGC | 0.0312
25 | GACGAGAA | -0.105
26 | GGCGCACA | 0.145
27 | CGTAAAGC | -0.0859
28 | TAATATCA | -0.113
29 | CTCATCCA | -0.242
30 | TTGGGAAA | -0.0337
31 | ATCTTACA | -0.152
32 | CCCGGTAG | 0.252
33 | GTGCCACA | -0.314
34 | ATGTTGCA | -0.281
35 | AAAGGTCA | -0.183
36 | GGGACGAC | -0.246
37 | AGCGACGA | -0.122
38 | TACCATAA | -0.115
39 | TACAATAA | -0.132
40 | AGAGACCG | -0.0104
41 | GCCCAATA | -0.0613
42 | ATTGTCAC | -0.0419
43 | CCTAACCA | -0.146
44 | GGGTAGCA | 0.0199

Row | Sequence | PBM E-score
45 | TCACCAGA | -0.141
46 | CCCCGCTA | 0.258
47 | GGTCGTTA | -0.0305
48 | CATCCGAA | 0.303
49 | CGGCCGTC | 0.198
50 | CACTGCCC | -0.00147
51 | AGGCGGCG | 0.193
52 | AAAGCGGA | 0.324
53 | CTTGGAGC | -0.184
54 | GCACCTCC | 0.195
55 | CATGGAGC | -0.157
56 | GCCGTATA | 0.0779
57 | CGTTAAAA | -0.0534
58 | ACTATCCC | 0.0493
59 | CGGGTAAG | -0.0724
60 | ACCCCCGG | 0.334
61 | GGAACACA | 0.0707
62 | AAGAGCGC | -0.104
63 | AACGGTAT | -0.0258
64 | CGCGGATC | 0.272
65 | CGCACAGC | 0.139
66 | AATGGGTA | -0.112

Row | Sequence | PBM E-score
67 | GCCCCTCC | 0.0876
68 | CCTGCATA | -0.109
69 | CCCAGTAC | -0.237
70 | AGGACTTA | -0.0757
71 | AGTTCCCC | 0.23
72 | AAGTAAGG | 0.0127
73 | TACTCGAA | -0.184
74 | AAAGCATC | 0.00213
75 | ATGGGGAA | -0.0607
76 | GTGATCAC | -0.0625
77 | AATCGACC | 0.0866
78 | AAGGGGGC | -0.244
79 | AGTGAAGC | -0.0584
80 | GGTAAACA | -0.0249
81 | AGCTGAAC | -0.242
82 | AAATCTGG | -0.0117
83 | ATATAATG | -0.326
84 | ACTGTGGG | -0.288
85 | AGATTGCA | -0.125
86 | CGTAGATA | 0.0276
87 | CCGGGCAA | 0.352
88 | GCGACACA | -0.0107

Row | Sequence | PBM E-score
89 | CACCAGTC | -0.26
90 | ATCGTAGG | -0.276
91 | GGGAGACA | 0.121
92 | AATGTGCC | 0.0447
93 | GCGTTACC | -0.0406
94 | CCGCGAGC | 0.257
95 | GTGTCGCA | 0.00208
96 | CCCGCGTC | 0.254
97 | GAGTAGCC | -0.125
98 | TCCTTTAA | 0.0067
99 | CGAGTGAC | -0.0386
100 | CGGGTTAC | 0.174
101 | ACTTTGCT | -0.141
102 | TAAGGTAA | -0.0157
103 | GCTGCAGC | 0.153
104 | GCGGATTA | 0.261
105 | AACGGATC | 0.23
106 | CGATTAGC | -0.00532
107 | ATCATTCA | -0.0937
108 | CGCTAGAG | -0.0923
109 | CTTCAGGC | -0.182
